The structures appear in SMILES notation. Where “and” joins values, the source holds several entries; their conditions need not be identical. Identical values can stand only once.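 Where inhibition never reached the appropriate level, the endpoint shown equals the highest concentration tested. Otherwise, values were interpolated linearly from a five-concentration, 48-hour dose response in 96-well plates. GI50: concentration for 50% inhibition of growth. TGI marks complete inhibition of growth.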

The assay has as its system NCI-H322M lung. The experiment in a line: inhibition of tumour cell growth, NCI panel, 48 h.
As for `COc1cc2c(cc1OC)[C@@]1(C)C(=O)c3cc4c(cc3[C@H]1N(C)C2=O)OCO4`, the GI50 is greater than 100 µM and the TGI was greater than 100 µM.

As to `O=C1/C(=C/c2ccccc2)CCCC/C1=C\c1ccccc1`, the TGI is greater than 100 µM.

The molecule `ON(CCc1ccccn1)Cc1ccccc1` returned a TGI greater than 100 µM.

With `CC1C2=CC=C(O2)C(C)(C)C2=CC=C(O2)C(C)(C)C2=CC=C(O2)C(C)(C)C2=CC=C1O2`, the TGI was greater than 100 µM.

In turn, `N#CC1=C(N2CCOCC2)CCC1` displayed a TGI greater than 100 µM.

For the molecule `O=C1/C(=C/c2ccc(Cl)cc2)CN(C(=O)C(Cl)Cl)C/C1=C\c1ccc(Cl)cc1`, the GI50 was 0.398 µM and the TGI worked out at 1.51 µM.

The molecule `O=c1[nH]n(Cc2ccccc2CCl)c2ccc([N+](=O)[O-])cc12` came in with a TGI greater than 100 µM.

The molecule `COC(=O)C(Cc1c[nH]c2ccccc12)NP(=O)(O)OCC1OC(n2cc(F)c(=O)[nH]c2=O)CC1O` (stereo not drawn) gave a TGI greater than 100 µM.

`O=C1C=CC2(C=C1)CCN=c1c(O)c3c(c(O)c12)=NC=N3`: the GI50 was 16 µM and > 100 µM; the TGI was 29.8 µM and > 100 µM.

In the case of `NC(=O)c1cc(C2OC(CO)C(O)C2O)nn1-c1ccc([N+](=O)[O-])cc1` (stereo not drawn), the TGI is greater than 100 µM.

In turn, `O=C(/C=C/c1cccs1)c1ccc(C(=O)/C=C/c2cccs2)cc1` had a TGI greater than 100 µM.

`C=CC(c1ccccc1)C1(O)c2cccc(O)c2C(=O)c2c(O)cccc21` (stereo not drawn) had a TGI of 41.6 µM.

`O=c1[nH]c2ccsc2c(=O)n1COCc1ccccc1`: the TGI was greater than 100 µM.

For the molecule `Clc1ccc(CO/N=C(\Cn2ccnc2)c2ccc(Cl)cc2Cl)c(Cl)c1`, the GI50 was 1.79 µM and the TGI is 3.21 µM.

For `COc1cc(/C=C2\N=C(c3ccccc3)N(/N=C/c3cc4cc(C)ccc4nc3Cl)C2=O)cc(OC)c1OC`, the TGI was greater than 100 µM.

For `COc1ccc(CCN(C)C(=O)CC(C#N)(c2ccccc2)c2ccc(OC)c(OC)c2)cc1OC` (stereo not drawn), the TGI was greater than 100 µM.

With `Cn1cc(C2=C(c3c4n(c5ccccc35)CCC(CN)CC4)C(=O)NC2=O)c2ccccc21` (stereo not drawn), the GI50 was 3.32 µM and the TGI was 8.45 µM.

On to `Cc1ccnc2c1ccc1nc3ccccc3n12`, for which the TGI was greater than 100 µM.

As for `CCC[CH2][Sn]([CH2]CCC)([S]C1=NCCS1)[S]C1=NCCS1`, the GI50 is 1.31 µM and the TGI worked out at 2.6 µM.

Consider `Cc1ccc2sc3c(NCCCNCCO)nc4ccccc4c3c(=O)c2c1`, for which the GI50 was 1.65 µM and the TGI stood at 3.03 µM.

The molecule `COc1cc(CCCC(O)COc2cccc3c2C2(O)CCCCCC32)cc(OC)c1` (stereo not drawn) gave a TGI of 35.3 µM.

Turning to `COC(=O)[C@@H](C)C[C@H](Cc1ccccc1)NC(=O)c1csc([C@@H](C[C@H](C(C)C)N(C)C(=O)[C@@H](NC(=O)[C@H]2CCCCN2C)C(C)C)OC(C)=O)n1`, the GI50 is 0.000454 µM and 0.0025 µM; the TGI was greater than 25 µM.

`CCN(CC)c1ccc2c(c1)N=C1N=CC=CN1C2(c1ccc(N(C)C)cc1)c1ccc(N(C)C)cc1` gave a TGI of 22.3 µM.

Consider `CO[C@H]1CC[C@@]2(C)C(=CC[C@H]3[C@@H]4C[C@H](O)C[C@@]4(C)CC[C@@H]32)C1`, for which the GI50 is 12.1 µM and the TGI is 26.7 µM.

For `COc1ccc(OC)c2cc(C3(C)SCCCS3)ccc12`, the TGI was greater than 100 µM.

With `CCn1c(=O)c2c3ccc(O)cc3oc2c2ccc(O)cc21`, the TGI was greater than 100 µM.

`CO[C@H](C(=O)N[C@@H](CCCCNC(=O)OCc1ccccc1)C(=O)OC(C)(C)C)[C@@H]1Cc2cc3cc(OC4CC(OC5CC(O)C(O)C(C)O5)C(O)C(C)O4)c(C)c(O)c3c(O)c2C(=O)[C@H]1OC1CC(OC2CC(OC3CC(C)(O)C(O)C(C)O3)C(O)C(C)O2)C(O)C(C)O1` (stereo partly drawn): the GI50 was 0.58 µM and the TGI is 4.91 µM.

`CN1CCC/C1=C1\C(=O)c2cccn2C1=O` registered a TGI greater than 100 µM.

In the case of `C[C@H](CCC1=NCCN1)[C@H]1CC[C@H]2[C@@H]3CC[C@@H]4C[C@H](O)CC[C@]4(C)[C@H]3CC[C@]12C`, the TGI came to 24.2 µM.

`CCOC(=O)c1cc2ncccc2c2ccccc12` came in with a TGI greater than 100 µM.

Molecule `C/C(=C/CNc1ncnc2c1ncn2CCC#N)CO` returned a TGI greater than 100 µM.

As for `COc1cccc2c1c1nc3cc(C)c(C)cc3nc1n2CCN(C)C`, the GI50 is 1.97 µM and the TGI is 8.27 µM.

`CC(C)(C)C(=O)Nc1cccc(-c2ccc[nH]2)n1` showed a TGI greater than 100 µM.

With `O=C(/C=C\Sc1nccc(C(F)(F)F)n1)c1ccc(Br)cc1`, the GI50 is greater than 100 µM and the TGI was greater than 100 µM.

Consider `C#C[C@]1(O)CC[C@H]2[C@@H]3CCC4=C/C(=N\OCCN5CCCC5)CC[C@]4(C)[C@H]3CC[C@@]21C`, for which the TGI turned out to be 38.2 µM.

`Nc1nccc(Nc2ccc(S(N)(=O)=O)cc2)n1` showed a TGI greater than 100 µM.

On to `COc1ccc(F)cc1C(=O)c1cnc(NC2CCN(S(C)(=O)=O)CC2)nc1N`, for which the GI50 is 4.2 µM and the TGI is greater than 18.8 µM.

As for `CC(C)(CCCCC(C)(C)NCC1COc2ccccc2O1)NCC1COc2ccccc2O1` (stereo not drawn), the TGI was greater than 10 µM.

Consider `Cc1cc(C)n(-c2c(O)ccc(O)c2-n2nc(C)cc2C)n1`, for which the TGI is greater than 100 µM.

Turning to `O=c1[nH]c(=O)n(C2CC(O)C(CO)O2)c2nc3ccc4ccccc4c3nc12` (stereo not drawn), the TGI was greater than 100 µM.

`O=C(/C=C/c1ccccc1)CCC1C(=O)NC(=O)NC1=O` came in with a TGI greater than 100 µM.

`COc1cc(C2S/C(=C/c3ccccc3)C(=O)N2c2ccc([N+](=O)[O-])cc2)cc(OC)c1OC` (stereo not drawn) showed a TGI greater than 100 µM.

`CCOC(=O)/C(=C\NC(C)(C)C)c1nc2ccccc2o1` returned a TGI greater than 100 µM.

As to `Nc1nncs1`, the TGI is greater than 5000 µM.

As to `COc1cc(-c2nc3ccccc3s2)ccc1OCc1nc2n(n1)S(=O)(=O)c1ccccc1N2C`, the GI50 is greater than 100 µM and the TGI was greater than 100 µM.

Molecule `CNC1C(O)CC(OC2C/C=C(\C)C/C(C)=C/C=C/CCC(C)CNC(=O)/C=C/C=C/C2C)OC1C` (stereo not drawn) registered a TGI of 2.45 µM.

With `O=C1/C(=C/C(Cl)=C/c2ccccc2)SC(=S)N1CCc1ccc(O)cc1`, the GI50 was 3.55 µM and the TGI is 62.1 µM.

Consider `C/C(=C\c1ccn(-c2ccc(N)cc2)n1)[C@@H]1C[C@@H]2O[C@]2(C)CCC[C@H](C)[C@H](O)[C@@H](C)C(=O)C(C)(C)[C@@H](O)CC(=O)O1`, for which the GI50 is 0.0366 µM and the TGI was greater than 50 µM.

As to `c1ccc2cc(Cn3c(-c4ccc5ccccc5c4)[n+](Cc4ccc5ccccc5c4)c4ccccc43)ccc2c1`, the GI50 was 1.18 µM and the TGI stood at 2.43 µM.

`O=S1c2ccc(Cl)cc2CC(SSC2Cc3cc(Cl)ccc3S(=O)c3ccccc32)c2ccccc21` (stereo not drawn) had a TGI greater than 100 µM.

`CC1(C)OC(=O)CC12CCN(Cc1ccccc1)CC2` displayed a TGI greater than 100 µM.

`O=C(O)CNCc1c2ccccc2[n+]([O-])c2ccccc12`: the TGI is greater than 100 µM.

As for `CN1CCN(Cc2ccc(Nc3ncc(Cl)c(Nc4ccccc4S(=O)(=O)N(C)C)n3)cc2)CC1`, the GI50 is 0.0955 µM and the TGI worked out at 0.59 µM.

As for `O=C(Cn1ccnc1[N+](=O)[O-])NCC(F)(F)C(F)(F)F`, the GI50 was greater than 100 µM and the TGI was greater than 100 µM.

In turn, `CNC(=O)CN(CC(N)=O)C(=O)NC` yielded a TGI greater than 100 µM.

For `C=C[C@]1(C)C=C2C(=O)[C@@]3(O)OC(=O)[C@@]4(CCCC(C)(C)[C@H]34)[C@@]2(O)CC1`, the GI50 was 4.98 µM and the TGI was determined as 18.5 µM.

Take `CC(=O)OCC1OC(S[As](C)C)C(OC(C)=O)C1OC(C)=O` (stereo not drawn): the GI50 is 5.19 µM and the TGI was 18.5 µM.

The values are drawn from PubChem BioAssay (NCI).
